Measured values from the supplement of paper PMC4604168 (melanoma cell lines).
The list shows a part of the results. Many values rest on one well or one pass, so single values are uncertain.

How the values were obtained:
Assay in all cases: cell count relative to DMSO control; melanoma cells; higher = more viable cells
Settings in all cases: library dose: standard library concentration; 72 h
A101D = test system: A101D
A2058 = test system: A2058
A375 = test system: A375
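Also: cells treated in 1,536-well plates, then fixed and DAPI-stained, with nuclei counted from automated high-throughput microscope images.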

Row | Compound | cell count (A101D) [%] | cell count (A2058) [%] | cell count (A375) [%]
1 | COc1ccc(C2=N[C@@H](c3ccc(Cl)cc3)[C@@H](c3ccc(Cl)cc3)N2C(=O)N2CCNC(=O)C2)c(OC(C)C)c1 [Nutlin-3] + Cc1ccc(NC(=O)c2cccc(N(C)C)c2)cc1NC(=O)c1ccc(O)cc1 [ZM336372] (first compound 0.5 µM, partner dose 10 µM) | 80.4 | 86.8 | 91.7
2 | CC(C)C[C@H](NC(=O)[C@H](Cc1ccccc1)NC(=O)c1cnccn1)B(O)O [Bortezomib] + C[C@@H](Oc1cc(-c2cnn(C3CCNCC3)c2)cnc1N)c1c(Cl)ccc(F)c1Cl [Crizotinib] (first compound 0.005 µM, partner dose 1 µM) | 12.8 | 17.4 | 79.6
3 | Cc1cn(-c2cc(NC(=O)c3ccc(C)c(Nc4nccc(-c5cccnc5)n4)c3)cc(C(F)(F)F)c2)cn1 [nilotinib] + CC(=O)c1c(C)c2cnc(Nc3ccc(N4CCNCC4)cn3)nc2n(C2CCCC2)c1=O [palbociclib] (first compound 1 µM, partner dose 0.2 µM) | 68 | 126 | 106
4 | COc1ccc(C2=N[C@@H](c3ccc(Cl)cc3)[C@@H](c3ccc(Cl)cc3)N2C(=O)N2CCNC(=O)C2)c(OC(C)C)c1 [Nutlin-3] + C=C(c1ccc(C(=O)O)cc1)c1cc2c(cc1C)C(C)(C)CCC2(C)C [Bexarotene] (first compound 0.5 µM, partner dose 10 µM) | 71.1 | 101 | 109
5 | COc1ccc(C2=N[C@@H](c3ccc(Cl)cc3)[C@@H](c3ccc(Cl)cc3)N2C(=O)N2CCNC(=O)C2)c(OC(C)C)c1 [Nutlin-3] + O=C(O)c1ccc(-c2c[nH]c3ncc(-c4ccccc4)cc23)cc1C1CCCC1 [GSK650394] (first compound 0.5 µM, partner dose 0.8 µM) | 56.1 | 89.6 | 75.8
